About 65 (0.1%) of roughly 45,000 compounds were called active. The call rests on the fitted dose curve; in most records, active means well fitted activation curve with a large enough effect; inconclusive means small, poorly fitted or top-dose-only effect; inactive means no such curve, though single readings can be large or run the other way. This is one part of the list.
The molecules below were run against Galactocerebrosidase (Homo sapiens) (UniProt P54803) (assay: A Novel Cell-Based Assay to Identify Small Molecules for B -Galactocerebrosidase). Details: 145M-Twi-hGALC-G270D cells (Twitcher mouse brain line with human GALC G270D), HMU-beta-Gal fluorescence, 48 h; series mostly up to 57.5 µM; activation: at the top concentration.
Sequence of UniProt P54803 (P54803 whole entry, looked up): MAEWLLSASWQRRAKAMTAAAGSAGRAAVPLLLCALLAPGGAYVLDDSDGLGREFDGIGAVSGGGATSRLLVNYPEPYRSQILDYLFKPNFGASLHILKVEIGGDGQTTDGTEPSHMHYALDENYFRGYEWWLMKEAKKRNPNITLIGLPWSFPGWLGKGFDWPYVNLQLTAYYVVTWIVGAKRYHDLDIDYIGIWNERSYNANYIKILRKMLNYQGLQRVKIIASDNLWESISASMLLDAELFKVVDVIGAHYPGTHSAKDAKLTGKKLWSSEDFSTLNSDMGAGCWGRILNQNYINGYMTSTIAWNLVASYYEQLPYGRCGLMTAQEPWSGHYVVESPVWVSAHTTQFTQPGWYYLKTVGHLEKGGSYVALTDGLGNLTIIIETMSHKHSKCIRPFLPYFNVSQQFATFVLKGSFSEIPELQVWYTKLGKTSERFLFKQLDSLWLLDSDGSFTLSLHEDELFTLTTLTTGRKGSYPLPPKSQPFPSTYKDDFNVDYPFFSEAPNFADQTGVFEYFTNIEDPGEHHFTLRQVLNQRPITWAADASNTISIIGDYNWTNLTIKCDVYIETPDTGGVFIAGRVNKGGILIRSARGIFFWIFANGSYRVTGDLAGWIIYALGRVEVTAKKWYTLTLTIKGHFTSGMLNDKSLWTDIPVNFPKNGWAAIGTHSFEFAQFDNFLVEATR
In short: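 Mutant human GALC (G270D), stably expressed in a Twitcher mouse brain cell line lacking endogenous GALC, is measured in live-treated cells via 6-hexadecanoylamino-4-methylumbelliferyl-β-galactoside hydrolysis (0.1 mM final, pH 5.2) with fluorescent detection.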
Further: 0% is about no effect; nearly all actives have a fitted effect of over 65% in size.

activation, inactive:
CC(=O)c1cccc(NC(=O)C2CCN(S(=O)(=O)c3ccc4[nH]c(=O)ccc4c3)CC2)c1 -10%
Cc1ccc(-n2nc3ccc(NC(=O)COc4ccccc4)cc3n2)cc1Cl 5.6%
Cc1cccc(-n2c(=O)c3ccccc3n(Cc3ccccc3)c2=O)c1 1.02%
CCCSc1ncc(Cl)c(C(=O)Nc2c(C(=O)Nc3ccc(OC)cc3)oc3ccccc23)n1 -10.4%
COc1cc(Cl)c(C)cc1NC(=O)Cn1ncc2c1-c1cc(C)ccc1OC2 16.3%
CCCOc1ccc(CNC(=O)CCCn2nc(C)c3sc4ccccc4c3c2=O)cc1 9.9%
Cc1ccc(CNC(=O)CCCCCn2c(=O)c3sccc3n(CC(=O)Nc3c(C)cc(C)cc3C)c2=O)cc1 -1.48%
O=S(=O)(c1ccc(Br)cc1)c1nnn2c1nc(NCc1ccc3c(c1)OCO3)c1sccc12 -13.9%
Cc1cccc(CNC(=O)c2ccc3oc(=O)n(Cc4ccccc4)c3c2)c1 -10.2%
COc1ccc(C(=O)Nc2nnc(SCc3cc(=O)n4cccc(C)c4n3)s2)cc1 -8.81%
O=C(O)c1ccc(CNCc2ccccc2Cl)s1 5.11%
CCc1ccc(C(=O)N2CCC(c3nc(-c4ccc(S(=O)(=O)N5CCCC5)cc4)no3)CC2)cc1 -9.27%
COc1ccc(Cl)cc1NC(=O)C1CCN(S(=O)(=O)c2ccc3c(c2)CC(C)N3C(C)=O)CC1 (centres undefined) -10.5%
CSc1ccc(CNC(=O)C2CCN(c3nc4ccccc4nc3C(F)(F)F)CC2)cc1 -16.6%
Cn1nc(C(=O)NCc2ccccc2Cl)c2c1-c1ccccc1S(=O)(=O)C2 -11.3%
Cc1cc(C)cc(NC(=O)CSc2oc(-c3ccco3)nc2S(=O)(=O)c2ccc(Cl)cc2)c1 -35%
CC1CCCN(Cc2nc3c(c(=O)n(C)c(=O)n3C)n2Cc2ccc(Cl)cc2)C1 (centres undefined) -5.05%
O=C(Nc1cc(Cl)ccc1Cl)c1cc2nc(-c3ccc4c(c3)OCO4)cc(C(F)(F)F)n2n1 -19.2%
CCOC(=O)C1=C(C)NC(C)=C(C(=O)OC)C1c1cccc([N+](=O)[O-])c1 (centres undefined) -12.7%
O=C(CSc1cn(CCNC(=O)c2c(F)cccc2F)c2ccccc12)Nc1ccc(F)cc1 0.869%
Cc1nnc(NC(=O)CSc2nccn2Cc2ccc(Cl)cc2)s1 -4.91%
Cc1cc(C)c(S(=O)(=O)N2CCC(N3CCN(Cc4ccccc4)C(=O)C3=O)CC2)c(C)c1 -22.6%
COc1ccc2c(c1)c1c(c(=O)n(-c3ccccc3C)c(=O)n1C)n2C -1.73%
CCN(CC)S(=O)(=O)c1cccc(C(=O)Nc2sc3c(c2C#N)CCC(C)C3)c1 (centres undefined) -10.2%
Cc1ccc(Cl)cc1N1CCN(c2ncnc3c2nc2n3CCCCC2)CC1 -14.2%
CCCCNC(=O)C1CCN(c2nc3ccccc3nc2C(F)(F)F)CC1 -8.64%
COc1ccc(Nc2cc(C)c3cc(NC(=O)Cc4ccc(Cl)cc4)ccc3n2)cc1 4.92%
COc1ccc(CNCc2c(C(=O)O)c(C)n(Cc3ccccc3C)c2C)c(OC)c1 -24.9%
CCN(CC)CCNC(=O)c1cn(CCOC)c(=O)c2c1c1ccccc1n2C 23.6%
COc1ccc(-n2ncc(C(=O)N3CCN(c4cc(C)ccc4C)CC3)c2C2CCN(C(=O)OC(C)(C)C)CC2)cc1 -5.79%
COc1ccccc1N1CCN(C(CNC(=O)C(=O)NCc2ccc(F)cc2)c2cccnc2)CC1 (centres undefined) -11.9%
O=C(Nc1ccc(F)c(Cl)c1)N1CCC2(CC1)Oc1ccccc1C(=O)N2Cc1ccccc1F -11.5%
CCc1ccccc1NC(=O)Cc1ccc(NC(=O)N2CCCCc3ccccc32)cc1 -8.31%
Cc1nc2nc(NC(=O)CC(C)C)[nH]n2c(=O)c1Cc1ccccc1 -11.9%
COc1ccc(C)cc1NC(=O)c1cc2c(=O)n(Cc3cccnc3)ccc2nc1C -21.5%
Cc1ccc(-c2c(C(=O)N3CCN(c4cc(Cl)ccc4C)CC3)oc(=O)c3ccccc23)cc1 -5.33%
CCS(=O)(=O)c1ncc(Cl)c(C(=O)Nc2c(C(=O)Nc3cccc(C)c3)oc3ccccc23)n1 -17.1%
COc1ccc(NC(=O)N2CCOc3ccc(Cl)cc32)cc1 2.41%
Nc1c(C(=O)Nc2ccccc2F)sc2nc3c(cc12)CCCCCC3 -22%
Cc1ccc(NS(=O)(=O)c2cc(-c3cnc(C4CC4)o3)ccc2C)cc1Cl -26.6%
Cc1cc(NC(=O)c2ccc3c(c2)OCCO3)cc(-c2nc3ccccc3o2)c1O -20.7%
CCOC(=O)c1c(NC(=O)c2cc3nc(-c4ccc(Br)cc4)cc(C(F)(F)F)n3n2)sc(C(C)=O)c1C -18%
CCC(C(=O)NCc1ccc(OC)c(OC)c1)n1nc(C)c2c(C)n(-c3ccc(C)cc3)nc2c1=O (centres undefined) -4.29%
Cc1ccc(C(=O)COC(=O)c2cccc(NC(=O)c3ccc(Cl)cc3Cl)c2)cc1 -14.2%
Cc1ccc(C)c(NC(=O)Cn2cc(C(=O)c3cccs3)c3ccccc32)c1 -16%
CCOc1ccccc1NC(=O)CCNS(=O)(=O)c1cccc2nonc12 4.67%
CC(C)Oc1ccc(C(=O)NCC(c2ccc(N(C)C)cc2)N2CCCC2)cc1 (centres undefined) -9.75%
CCOc1ccccc1NC(=O)C1CCCN1S(=O)(=O)c1ccc2c(c1)C(C)(C)C(=O)N2C (centres undefined) -18.9%
COc1cc(C(=O)Nc2ccc3c(c2)N(C2CCCC2)C(=O)c2ccccc2S3)cc(OC)c1OC -8.93%
CCc1ccccc1NC(=O)CN1CCCN(Cc2cc(C)ccc2C)S1(=O)=O -13.3%
CCCCNC(=O)c1cc(-c2ccc(OC)cc2)nc2n[nH]c(-c3cccc([N+](=O)[O-])c3)c12 -6.69%
CCOC(=O)c1ccccc1NC(=O)CN1CCCN(Cc2cccc(Cl)c2)S1(=O)=O 4.78%
CCc1ccc(NC(=O)CCNS(=O)(=O)c2ccc3c(c2)oc(=O)n3C)cc1 -8.81%
COc1ccc(Cl)cc1N(C)C(=O)c1cc2c(=O)oc3ccc(C)cc3c2s1 -21.4%
COc1ccc(Cc2nc3c4cnn(-c5ccccc5F)c4ncn3n2)cc1 -9.76%
COc1ccc(C(C)=O)cc1CSc1nc(NCCc2ccccc2)c2ccccc2n1 -2.31%
COc1ccc(C(=O)NNc2ncnc3c2cnn3-c2cccc(Cl)c2)cc1OC -14.7%
CCN(CC)CCCNC(=O)c1nn(C)c2c1CSc1ccccc1-2 -4.94%
COc1ccccc1-c1cc(C(=O)Nc2cc(OC)c(OC)c(OC)c2)no1 -9.99%
Cc1ccc(-n2nc(C)c3c(C(=O)NCCc4ccccc4)cc(C)nc32)cc1 -11%
Cc1ccc(CNC(=O)c2ccc3c(c2)nc2n3CCOC2)cc1 -17.9%
CCN(CC)c1ccc(C(=O)NCc2ccc3c(c2)CCN3C(=O)c2ccc(F)cc2)cc1 -7.78%
COc1ccc(C2NC(=O)N(C)C3=C2C(=O)N(c2cccc(C(=O)O)c2)C3)cc1 (centres undefined) 7.84%
COc1ccc(Cl)cc1CNCCSc1nnnn1-c1ccccc1 -13.4%
COc1ccc(NC(=O)CCc2nc3c(C)nn(-c4ccc(C)cc4)c3n(C)c2=O)cc1 -6.77%
Cc1ccc(NC(=O)C2CCN(S(=O)(=O)c3c(C)noc3/C=C/c3cccs3)CC2)cc1F -13.5%
CCCS(=O)(=O)c1c(S(=O)(=O)CCC)c2cc(CC)ccn2c1C(=O)c1ccc(Cl)cc1 -15.1%
Cc1cccc(N(CC(=O)NCCSCc2cccc(Cl)c2)S(=O)(=O)c2ccccc2)c1C -10.2%
Cc1cccc(Cn2cc(C(=O)Nc3cc(F)ccc3F)ccc2=O)c1 -11.9%
COc1ccc(-c2ccc(CCC(=O)O)n2-c2ccccc2O)cc1 -4.02%
COc1ccc(CNC(=O)CN2C(=O)CCn3nc(-c4ccccc4)cc32)c(OC)c1 -15.8%
COc1ccc(S(=O)(=O)Nc2cc3c(C(=O)OC(C)C)c(C)oc3c3ccccc23)cc1 -5.82%
CC(CCc1ccccc1)NC(=O)CSc1n[nH]c(-c2ccc(F)cc2)n1 (centres undefined) 2.97%
COc1ccc(-c2nn3c(=O)cc(CN4CCN(S(=O)(=O)c5ccc(C)cc5)CC4)nc3s2)cc1 -10.4%
COc1ccc(C(=O)Nc2ccc(S(=O)(=O)N(Cc3ccccc3)c3ccccc3)cc2)cc1 -13.3%
Cc1cc(OCC(O)CN2CCN(c3cccc(Cl)c3)CC2)ccc1Cl (centres undefined) -7.51%
Cc1oc2ncn(C)c(=O)c2c1C(=O)NCc1ccc(Cl)cc1 -8.17%
COc1ccc(-c2nc(Cn3c(SCc4cccc(C(F)(F)F)c4)nc4cccnc43)c(C)o2)cc1OC -10.4%
COc1ccc(C(=O)c2sc3nc(-c4ccc(F)cc4)ccc3c2N)cc1 -13.7%
CC1=C(C(=O)Nc2ccc(C)cc2C)C(c2ccc(O)cc2)n2nc(SCC(=O)c3ccc(C)cc3)nc2N1 (centres undefined) -8.39%
Cn1c(Nc2ccc(Cl)cc2)cc(=O)n(C)c1=O -19.2%
CCc1nnc2c(Nc3ccc(N(CC)CC)cc3C)nc3ccccc3n12 3.32%
Cc1ccc(S(=O)(=O)NCc2nc3cccnc3n2Cc2ccccc2Cl)c(C)c1 -7.25%
COc1cccc(NS(=O)(=O)c2ccc3c(c2)N(C)C(=O)CC(=O)N3C)c1 -10.4%
COc1ccc(C)cc1NC(=O)c1cn(C)c(=O)c2cc(OC)c(OC)cc12 -10.6%
Cc1cc(S(=O)(=O)Nc2ccc(C(=O)O)cc2)c(C)c(S(=O)(=O)c2ccc(Cl)cc2)c1 -10%
CC(C)Cc1nn2c(=O)cc(COC(=O)c3ccccc3NC(=O)C3CCCCC3)nc2s1 -22.1%
CCCc1nn2c(=O)cc(COC(=O)c3ccc(NC(=O)C4CCCCC4)cc3)nc2s1 -18.9%
CC(=O)c1ccccc1OCC(O)Cn1c(CO)nc2ccccc21 (centres undefined) -9.78%
CC(=O)c1ccc(NC(=O)c2nc(-c3ccccc3)n(-c3ccccc3)n2)cc1 -23%
O=C(Nc1ccc(Br)cc1F)N1CC=C(c2c[nH]c3ccccc23)CC1 -14.8%
CCc1ccccc1NC(=O)N1CC(C)Sc2ccccc21 (centres undefined) -2.8%
COc1ccccc1NC(=O)CN1C(=O)c2ccccc2Sc2ccc(C(=O)N3CCCC3)cc21 -6.71%
Cn1c(=O)c2sccc2n2c(CCCC(=O)NC3CCCCC3)nnc12 -14.6%

— PubChem BioAssay AID1159614 (National Center for Advancing Translational Sciences (NCATS), 2016)
